# The source gives no read counts; variants with many changes may rest on few reads.
# B1: CPEB3 Ribozyme (parent)
# chain: UAACAGGGGGCCACAGCAGAAGCGUUCACGUCGCAGCCCCUGUCAGAUUCUGGUGAAUCUGCGAAUUCUGCUGUAUAUCUC
# Variants of: B1
# Assay: self-cleavage, relative activity (ratio to wild type); higher = more cleavage; in vitro, sequencing
# Method in brief: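 CPEB3 self-cleaving ribozyme mutant libraries were made by rounds of error-prone PCR, barcoded, and transcribed in vitro with T7 RNA polymerase for 5 hours at 37°C. Cleavage occurred during transcription and a 15 min DNase I step before EDTA stop. RNAs were reverse transcribed with template switching and Illumina-sequenced, with DNA sequencing mapping barcodes to variants. Relative activity is the variant's cleaved/total read fraction divided by wild type's (minimum 5 reads), averaged across three batches.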
row,Variant,self-cleavage
1,UGACAGGGGGCCACGGCAGAAGCGUUCACGACGCAGCCCCUGACAGAUUCUGGAGAAUCUGCGAAUUCUGCUGUAUAUCUC,1
2,UGACAGGGGGCCACGGCAGAAGCGUUCACGUCGCAGCCCCCGUCAGAUUCUGGUGAAUCUGCGAAUUCUGCUGUAUAUCUA,0.18
3,UGACAGGGGGCCACGGCAGAAGCGUUCACGUCGCAGCCCCUGUCAGACUCUGGUGAAUCUGCGAAUUCUGCUGUAUAUCUC,0.35
4,UGACAGGGGGCCACGGCAGAAGCGUUCACGUCGCAGCCCCUGUCAGAUACUGGUGGAUCUGCGAACUCUGCCGUAUAUCUC,0.07
5,UGACAGGGGGCCACUGCUGAGGCGUUCACGUCGCAGCCCCUGUCAGAUUCUGGUGAAUCUGCGAAAUCUGCCGUAUAUCUC,0.03
6,UGACAGGGGGCCACUGCAGAAGCGUUCACGUCGCUGCCCCUGUCAGAUUCUGGUGAAUCUGCGAAUUCUGCAGUAUAUCUC,0.7
7,UGACAGGGGGCCACUGCAGAAGCGUUCACGUCGCAGCCCCUGUCGGAUUCUGGUGAAUCUGCGAAUUCUGCAGUAUAUCUC,0.75
8,UGACAGGGGGCCACUGCAGAAGCGCUCACGUCGCAGCCCCAGUCAGGUUCUGGUGAAUCUGCGAAUUCUGCUGUAUAUCCC,0.06
9,UGACAGGGGGCCACAGCCGAAGCGUUCACGUCGCAGCCCCUGUCAGAUUCUGGUGGAUCUGCGAAUUCAGCUGUAUAUCUC,0.15
10,UGACAGGGGGCCACAGCGGAAGCGUUCACGUCGCAGCCCCCGUCAGAUUCUGGUGAUCCUGCGAAUUCUGCUGUAUAUCUC,0.27
11,UGACAGGGGGCCACAGCGGAAGCGUUCACGUCGCAGCCCCUGUCAGAUCCUGGUGAAUCCGCGAAUUCUGCUGUAUAUCUC,0.19
12,UGACAGGGGGCCACAGCUGGAGCGUUCACCUCGCUGCCCCUGUCAGAUUCUGGUGAAUCUGCGAAUUCUGCCGUAUAUCUC,0.04
13,UGACAGGGGGCCACAGCUGAAGCGUUCACGUCGCAGCCCCUGUCGGAUUCUGGUGAAUCUGCGAAUUCUGCUGUAUAUCUC,0.44
14,UGACAGGGGGCCACAGCUGAAGCGUUCACGUCGCAGCCCCUGUCAGGUUCUGGUGAAUCUGCGAAUUCUGCUGAAUAUCUC,0.62
15,UGACAGGGGGCCACAGCUGAAGUGUUCACGUCGCAGCCCCUGUCAGAUUCUGGUGAAUCUGCGAAUUCUGCUGUAUAUCUC,0.42
16,UGACAGGGGGCCACAGCUGAAGCGGUCACGUCGCGGCCCCUGUCAGAUUCUGGUGAAUCUGCGAGUUCUGCUCUAUAUCUC,0.07
17,UGACAGGGGGCCACAGCUGAAGCGUUCACGUCGCAGCCCCUGCCUGAUUCUGGUGAAUCUGCGAAUUCUGCUGUAUAUCUC,0.08
18,UGACAGGGGGCCACAGCUGAAGCGUUCACGUCGCAGCCCCUGCCAGAUUCUGGUGAAACCGCGAAUUCUGCUGUAUAUCUC,0.1
19,UGACAGGGGGCCACAGCUGAAGCGUUCACGUCGCAGCCCCUGUCAGAUCCUGGUGAAUCUGCGAAUUCUGCUGUAUAUCAC,0.33
20,UGACAGGGGGCCACAGCAGCAGCGUUCACGUCGCAGCCCCUGUCAGAUUCUGGCGAAUCUGCGAAUCCUGCUGUAUAUCUC,0.16
21,UGACAGGGGGCCACAGCAGGAGCGUUCGCGUCGCAGCCCCUGCCAGAUUCUGGUGAAUCUGCGAAUUCUGCUGUAUAUCUC,0.44
22,UGACAGGGGGCCACAGCAGGAGCGUUCUCGUCGCAGCCCCUGUCAGAUUCUGGUGGAUCUGCGAAUUCUGCUGUAUAUCCC,0.62
23,UGACAGGGGGCCACAGCAGGAGCGUUCACGUCGCAGCCCCUGUCAGAUUCUGGUGAAUCUGCGAGUCCUGCUGUACAUCUC,0.11

row,Variant,self-cleavage
1,UGACAGGGGGCCACAGCAGUAGCGUUCACGACGCAGCCCCUGUCAGAUUCUGGUGAAUCUGCGAAAUCUGCUGUAUAUCUC,0
2,UGACAGGGGGCCACAGCAGUAGCGUUCACGUCGCAGCCCCUGACAGAUUCUGGUGAAUCUGCGUAUUCUGCUGUAUAUCUC,0.08
3,UGACAGGGGGCCACAGCAGUAGCGUUCACGUCGCAGCCCCUGCCAGAUUCUGGGGUAUCUGCGAAUUCUGCUGUAUAUCUC,0.2
4,UGACAGGGGGCCACAGCAGUAGCGUUCACGUCGCAGCCCCUGUCAGAUUCUGGUGAAUCAGCGAAUUCUGCUGUAUAUCUC,0.49
5,UGACAGGGGGCCACAGCAGAGGCGUUCAUGUCGCAGCCCCUGUCAGAUUCUGGUUAAUCUGCGAAUUCUGCCGUAUAUCUC,0.2
6,UGACAGGGGGCCACAGCAGAGGCGCUCACGUCGCAGUCCCUGUAAGAUUCUGGUGGAUCUGCGAAUUCUGCUGUAUAUCUC,0.28
7,UGACAGGGGGCCACAGCAGAGGCGCUCACGUCGCAGCCCCUGUCAGAUUCUGGUGAACCUGCGAAUUCUGCUGUAUAUCUC,0.05
8,UGACAGGGGGCCACAGCAGAGGCGCUCACGUCGCAGCCCCUGUCAGAUUCUGGUGAAUCUGCGAAUUCUGCUGUAUAUCCC,0.5
9,UGACAGGGGGCCACAGCAGAGGCGUCCACGUCGCAGCCCCUGUCAGAUACUGGUGAAUCUGCGGAUUCUGCUGUAUAUCUC,0.02
10,UGACAGGGGGCCACAGCAGAUGCGUUCGCGUCGCAGCCCCUGUCAGAUUCUGGUGAAUCUGCGAAUUCUGCUGUAUAUCUC,0.36
11,UGACAGGGGGCCACAGCAGAAGCGUUCGCGUCGCUGCCCCAGUCAGUUCCAGGUGAAUCUGCGAAUUCUGCUGUAUAUCUC,0.08
12,UGACAGGGGGCCACAGCAGAAGCGUUCUCGUCGCAGCCCCUGUCAGAUUCAGGUGAAUCUGCGAAUUCUGCUGAAUAUCUC,0.47
13,UGACAGGGGGCCACAGCAGAAGCGUUCACGUCGCGGCCCCUGCCAGAUUCUGGUGAAUCUGCGUAUUCUGCUGUAUAUCUC,0.29
14,UGACAGGGGGCCACAGCAGAAGCGUUCACGUCGCGGCCCCUGUCAGACUCUGGUGAAUCUGCGAAUUCAGCUGUAUAUCUC,0.68
15,UGACAGGGGGCCACAGCAGAAGCGUUCACGUCGCUGCCCCUGUCAGAUACUGGUGAGUCCGCGAAUCCUGCUGUAUACCUC,0.07
16,UGACAGGGGGCCACAGCAGAAGCGUUCACGUCGCAGCCCCUGUCGGACUCUGGUGAAUCUGCGAAAUCUGCUGUAUAUCUC,0.09
17,UGACAGGGGGCCACAGCAGAAGCGUUCACGUCGCAGCCCCUGUCGGAUUCUGGUGAACCUGCGAAUUCUGCUGUACAUCUC,0.03
18,UGACAGGGGGCCACAGCAGAAGCGUUCACGUCGCAGCCCCUGUCGGAUUCUGGUGAAUCUGCGAAUUCUGCUGUAUAUCCC,0.33
19,UGACAGGGGGCCACAGCAGAAGCGUUCACGUCGCAGCCCCUGUCUGAUACUGGUGAAUCUGCGAAUUCUGCUGCAUAUCUC,0.35
20,UGACAGGGGGCCACAGCAGAAGCGUUCACGUCGCAGCCCCUGUCUGAUUCUGGCGAAUCUGCGAAUUCAGCUGUAUAUCUC,0.18
21,UGACAGGGGGCCACAGCAGAAGCGUUCACGUCGCAGCCCCUGUCAGGUUCUGGUGAAUCUGCGAACUCUGCUGUAUAUCUC,0.44
22,UGACAGGGGGCCACAGCAGAAGCGUUCACGUCGCAGCCCCUGUCAGAUUCUGGUGGAUCUGCGAAUUCUGCUGUAUACCUC,0.28
23,UGACAGGGGGCCACAGCAGAAGCGUUCACGUCGCAGCCCCUGUCAGAUUCUGGUGAGACUGCGAAUUCUGCUGUAUAUCUC,0.55

row,Variant,self-cleavage
1,UGACAGGGGGCCACAGCAGAAGCGUUCACGUCGCAGCCCCUGUCAGAUUCUGGUGAUUAUGCGAAUUCCGCUGUAUAUCUC,0
2,UGAAAGGGGGCCACAGCAGAAGCGUUCACGUCGCAGCCCCUGUCAGAUUCUGGUGAAUCUGCGAGUUCUGCUGUAUAUCCC,0.51
3,UGAAAGGGGGCCACAGCAGAAGCGUUCACGUCGCAGCCUCUGUCAGACUCUGGUGAAUCAGCGAAUUCUGCUGUAUAUCUC,0.07
4,UGAUAGGGGGUCACAGCAGAAGCGUUCACGUCGCAGCCCCUGUCAGAUUCUGGUGAAUCUGCGUACUCUGCUGUAUAUCUC,0.09
5,UGAUAGGGGGCCACAGCAGAAGCGUCCACGUCGCAGCCCCUGUCAGAUUCUGGUGAAUCUGCGGAUUCUGCUGUAUACCUC,0.32
6,UGACAGGGGGACACAGCAGAAGCGUUCACGUGGCAGCCCCUGUCAGAUCCUGGUGAAUCUGCGAAUUCGGCUGUAUAUCUC,0.06
7,UGACAGGGGGGCACAGCAGAAGCGUUCACGUCGCAGCCCCUGUCAGGUUCUGGUGAAUCUGCGGAUCCUGCUGUAUAUCUC,0.11
8,UGACAGGGGGGCACAGCAGAAGCGUUCACGUCGCAGCCCCUGUCAGAUUCAGGUGAAUCUGCGAAUUCCGCUGUAUAUCUC,0.07
9,UGACAGGGGGGCACAGCAGAAGCGUUCACGUCGCAGCCCCUGUCAGAUUCUGGUGAAUCUGCGAAUUCUGCUGUACAUCUC,0.48
10,UGACAGGGGGUCACAGCGGAUGCGUUCACGUCGCAGCCCCAGCCAGAUUCUGGUGAAUCUGCGAGUUCUGCUGUAUAUCUC,0.04
11,UGACAGGGGGUUACAGCAGAAGCGUUCACGUCGCAGCCCCCGUCAGAUUCUGGUGGAUCUGCGAAUUCUGCUGUAUAUCCC,0.32
12,UGACAGGGGGCUACAGCAGAAGCGUUCACGUCGCAGCCCCUGUCAGAUUCUGGUGAAUCUGCGAAUUCUGCUGUGUAUCUC,1.08
13,UGACAGGGGGCCAUAGCAGAAGCGUCCACGUCGCAGCCCCUGUCAGAUUCUGGUGAAUCUGCGAAUUCUGCUGUAUAUCUC,0.8
14,UGACAGGGGGCCACAGCAGAAGAGUUCACGUCGCAGCCCCCGUCAGAUUCUGGUGAAUCUGCGAAUUCUGCUGUAUAUCUC,0.3
15,UGACAGGGGGCCACAGCAGAAGGGUUCACGUCGCAGCCCCUGUCAGAUUCUGGUGAAUCCGCGAAUUCUGCUGUAUAUCAC,0.26
16,UGACAGGGGGCCACAGCAGAAGGGUUCACGUCGCAGCCCCUGUCAGAUUCUGGUGAAUCUGCGAAUUCUGCUGUAUACCUC,0.26
17,UGACAGGGGGCCACAGCAGAAGUGUUCACGUCGCAGCCCCUGUAAGACUCUGGUGAAUCUGCGAAUUCUGCUGUAUAUCUC,0.35
18,UGACAGGGGGCCACAGCAGAAGCGUUCAAGUCGCAGCCCCUGUCAGAUUCUGGUGAAUCUGCUAAUUCUGCUGUAUAUCUC,0.39
19,UGACAGGGGGCCACAGCAGAAGCGUUCAUGUCGCAGCCCCUGUCAGGUUCUGGUGAAUCUGCGAAUUCUGCUGCAUAUCUC,0.37
20,UGACAGGGGGCCACAGCAGAAGCGUUCACGUAGCAGCCCCUGUCAGAUUCUGGUGAACCCGCGAAUUCUGCAGUAUAUCUC,0.15
21,UGACAGGGGGCCACAGCAGAAGCGUUCACGUAGCAGCCCCUGUCAGAUUCUGGUGAAUCUGCGAAUUCUGCUGCAUAUCUC,0.39
22,UGACAGGGGGCCACAGCAGAAGCGUUCACGUCGGUGCCCCUGUCAGAUUCUGGUGAAUCUGCGAAUUCUGCUGUAUAUCUC,0.24

# Source: the RNAGym collection of RNA variant scans (doi:10.1093/nar/gkz1192)
